This series in a line: label from the status in PepcDB records.
On to “MGDRRFIDFQFQDSNSSLRPRLGNATANNTCIVDDSFKYNLNGAVYSVVFILGLITNSVSLFVFCFRMKMRSETAIFITNLAVSDLLFVCTLPFKIFYNFNRHWPFGDTLCKISGTAFLTNIYGSMLFLTCISVDRFLAIVYPFRSRTIRTRRNSAIVCAGVWILVLSGGISASLFSTTNVNNATTTCFEGFSKRVWKTYLSKITIFIEVVGFIIPLILNVSCSSVVLRTLRKPATLSQVGTNKKKVLKMITVHMAVFVVCFVPYNSVLFLYALVRSQAITNCFLERFAKIMYPITLCLATLNCCFDPFIYYFTLESFQKSFYINAHIRMESLFKTETPLTTKPSLPAIQEEVSDQTTNNGGELMLESTF”, for which the protein production entry is given as “failed”.

Regarding “MGPTLAVPTPYGCIGCKLPQPEYPPALIIFMFCAMVITIVVDLIGNSMVILAVTKNKKLRNSGNIFVVSLSVADMLVAIYPYPLMLHAMSIGGWDLSQLQCQMVGFITGLSVVGSIFNIVAIAINRYCYICHSLQYERIFSVRNTCIYLVITWIMTVLAVLPNMYIGTIEYDPRTYTCIFNYLNNPVFTVTIVCIHFVLPLLIVGFCYVRIWTKVLAARDPAGQNPDNQLAEVRNFLTMFVIFLLFAVCWCPINVLTVLVAVSPKEMAGKIPNWLYLAAYFIAYFNSCLNAVIYGLLNENFRREYWTIFHAMRHPIIFFSGLISDIREMQEARTLARARAHARDQAREQDRAHACPAVEETPMNVRNVPLPGDAAAGHPDRASGHPKPHSRSSSAYRKSASTHHKSVFSHSKAASGHLKPVSGHSKPASGHPKSATVYPKPASVHFKADSVHFKGDSVHFKPDSVHFKPASSNPKPITGHHVSAGSHSKSAFSAATSHPKPTTGHIKPATSHAEPTTADYPKPATTSHPKPTAADNPELSASHCPEIPAIAHPVSDDSDLPESASSPAAGPTKPAASQLESDTIADLPDPTVVTTSTNDYHDVVVVDVEDDPDEMAV”, the protein production result is given as “failed”.

For the sequence “MINLKCTFAVTAGLCSSLAYAQKQPHIILIMTDQQRGDAMGCMGNESLISPHLDALASEGTLFMNGYSSCPSSTPARAGLLTGQSPWHHGLLGYGKVAPKYNHEMPQMLKDAGYYTFGIGKMHWHPQRIKHGFEGTLLDESGRREDPNFISDYRLWFQIQAPGKNPDETGIGWNDHGAATYKLKESLHPTYWTGEMACQMIQNYDNGNQPLFLKVSFARPHSPYDPPQRFLDMYKDAQVPDPVIGEWCGKYAKELDPEKAAKDAPYGNFGNEYARHSKRYYYANITFIDEQIGRVLQTLKDKGMYDNSLIIFVSDHGDMMGDHYHWRKTYPYEGSTHIPYIIKWPAKAQVVPGKVDNPVELRDLLPTFFEIAGTSVPTDIDGRSLLSLAKGTETEWRKYIDLEHATCYSDDNYWCALTDGKIKYIWYFYTGEEQLFDLAKDPKELHNAVNDKKYKKLLTGMRAEMIRHLSERGEEFVKDGQLVVRKKTMLYGPNYPKEKRLEHHHHHH”, the protein production result is recorded as “not failed”.

In the case of “MNEPQCFYNESIAFFYNRSGKHLATEWNTVSKLVMGLGITVCIFIMLANLLVMVAIYVNRRFHFPIYYLMANLAAADFFAGLAYFYLMFNTGPNTRRLTVSTWLLRQGLIDTSLTASVANLLAIAIERHITVFRMQLHTRMSNRRVVVVIVVIWTMAIVMGAIPSVGWNCICDIENCSNMAPLYSDSYLVFWAIFNLVTFVVMVVLYAHIFGYVRQRTMRMSRHSSGPRRNRDTMMSLLKTVVIVLGAFIICWTPGLVLLLLDVCCPQCDVLAYEKFFLLLAEFNSAMNPIIYSYRDKEMSATFRQILCCQRSENPTGPTEGSDRSASSLNHTILAGVHSNDHSVV”, the protein production entry was “failed”.

On to “MSKRSWWAGSRKPPREMLKLSGSDSSQSMNGLEVAPPGLITNFSLATAEQCGQETPLENMLFASFYLLDFILALVGNTLALWLFIRDHKSGTPANVFLMHLAVADLSCVLVLPTRLVYHFSGNHWPFGEIACRLTGFLFYLNMYASIYFLTCISADRFLAIVHPVKSLKLRRPLYAHLACAFLWVVVAVAMAPLLVSPQTVQTNHTVVCLQLYREKASHHALVSLAVAFTFPFITTVTCYLLIIRSLRQGLRVEKRLKTKAVRMIAIVLAIFLVCFVPYHVNRSVYVLHYRSHGASCATQRILALANRITSCLTSLNGALDPIMYFFVAEKFRHALCNLLCGKRLKGPPPSFEGKTNESSLSAKSEL”, for which the protein production result is on record as “failed”.
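Also: failed if final PepcDB status was selected cloned or expressed and not failed if soluble or beyond.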
